Among all 340,000 compounds or so, about 12,000 (3.5%) were called active. The inconclusive results got no clear call from the source; some entries with a clear call stand among them for comparison. The call rests on the fitted dose curve; in most records, active means well fitted inhibition curve with a large enough effect; inconclusive means small, poorly fitted or top-dose-only effect, or another doubt; inactive means no such curve, though single readings can be large or run the other way. Potencies of inconclusive entries are left out as doubtful fits.
Assay: qHTS Assay for Inhibitors of Hepatitis C Virus (HCV)
Conditions: Huh7.5.1 HCVcc-Cre (HCVcc is cell-culture hepatitis C virus) infection, luciferase reporter, 44 h; activity change, negative = inhibition: at 41.8 µM (top of the series) unless noted
Method in brief: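 A cell-based infection assay in which seeded cells (1,000 per well) receive test compound after 4 h, are inoculated with HCVcc-Cre at approximately 0.5 moi, and are incubated 44 h before luminescence detection.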
With `CCNc1c([N+](=O)[O-])ncn1C` the Potency was inconclusive [inhibitor, single point].
For `COc1ccc(-c2cc(C)no2)cc1S(=O)(=O)Nc1cccc(C)c1`, the Potency was active: 10 µM.
For `O=C(Nc1ccncc1)c1cc2ccccc2cc1O`, the Potency was inconclusive [inhibitor, single point].
For `COC(=O)C1=C(c2ccccc2OCc2ccccc2)C[C@@H]2CC[C@H]1N2C(=O)NCc1ccc([N+](=O)[O-])cc1`, the Potency was active: 12.6 µM.
In the case of `Cc1cc2oc(=O)cc(-c3ccccc3)c2c(C)c1-c1ccc(CO)cc1`, the Potency is reported as inconclusive [inhibitor, single point].
With `CCOC(=O)NC(=O)/C(C=Nc1ccc(Cl)cc1)=C(\C)O` the “activity change, negative = inhibition” value was inactive: 12.2%.
With `Cc1ccc(N2C(=O)C3C4C=CC(CNC(=S)Nc5ccc(Cl)cc5)(O4)C3C2=O)cc1` (stereo not drawn) the Potency was inconclusive [inhibitor, single point].
With `CCOC(=O)C1(Cc2cccc(OC)c2)CCN(Cc2ccccc2)CC1` the Potency was inconclusive [inhibitor, single point].
For `CCOC(=O)c1ccccc1NC(=O)COC(=O)CCC(=O)N1CCOCC1`, the Potency was inconclusive [inhibitor, single point].
For `CSc1nsc(/C=C/Nc2ccc(Cl)cc2)c1C#N`, the Potency was inconclusive [inhibitor, partial curve].
In the case of `O=C(Cn1ncc(Cl)c(Cl)c1=O)NC1CCCCC1`, the Potency is reported as active: 2.82 µM.
With `CCOC(=O)c1sc(NC(=O)CSc2n[nH]c(CC(C)C)n2)nc1C` the Potency was inconclusive [inhibitor, single point].
With `O=C(O)C1CC1C(=O)Nc1nc2c(Cl)cccc2s1` (stereo not drawn) the “activity change, negative = inhibition” value was inactive: 11.6%.
For `CCNS(=O)(=O)c1ccc(NC(=O)Nc2cc(C)ccc2OC)cc1`, the Potency was active: 12.6 µM.
In the case of `Cc1cccc(Nc2nc(-c3ccccc3)c(C(=O)Nc3cccnc3)s2)c1`, the Potency is reported as inconclusive [inhibitor, single point].
With `S=C(Nc1ccccc1)N1CCn2cccc2C1c1cccnc1` (stereo not drawn) the Potency was inconclusive [inhibitor, partial curve, poor fit].
In the case of `CCOc1cc(NC(=S)NCC2CCCO2)c(OCC)cc1NC(=O)c1ccccc1F` (stereo not drawn), the Potency is reported as inconclusive [inhibitor, full curve].
In the case of `Cc1ccccc1Oc1cc(NC(=O)Cn2cnc([N+](=O)[O-])c2)cc([N+](=O)[O-])c1`, the Potency is reported as inconclusive [inhibitor, partial curve].
For `COc1ccc(-n2nnnc2-c2cccnc2)cc1`, the “activity change, negative = inhibition” value was inactive: -4.37%.
For `CCOc1ccc(/C=N/NC(=S)NC2CC3C=CC2C3)cc1` (stereo not drawn), the Potency was inconclusive [inhibitor, single point].
With `COc1ccc(-c2cccc(-c3cc(=O)oc4cc(OC)cc(OC)c34)c2)cc1` the Potency was inconclusive [inhibitor, full curve].
For `CCCOc1ccc(/C=C/C(=O)Nc2ccc([N+](=O)[O-])cc2C)cc1OC`, the “activity change, negative = inhibition” value was inactive: -17.9%.
In the case of `COc1ccc(C(=O)Nc2cc(Cl)ccc2-n2cncn2)c(OC)c1OC`, the Potency is reported as inconclusive [inhibitor, single point].
For `O=C(Cc1sc(-c2ccccc2)nc1-c1ccccc1)Nc1ccccc1`, the Potency was inconclusive [inhibitor, full curve].
With `O=C(CCc1c[nH]c2ccccc12)N[C@@H](Cc1c[nH]c2ccc(O)cc12)C(=O)O` the “activity change, negative = inhibition” value was inactive: 10.6%.
In the case of `O=C1CC(Cc2ccc(Br)cc2)C(=O)N1c1ccccc1` (stereo not drawn), the “activity change, negative = inhibition” value is reported as inactive: -1.45%.
With `Cc1nnc(NC(=O)CN2CC(C)OC(C)C2)s1` (stereo not drawn) the “activity change, negative = inhibition” value was inactive: 5.86%.
For `CCOC(=O)c1ccc(NC(=O)NCCc2ccccc2OC)cc1`, the “activity change, negative = inhibition” value was inactive: -24.3%.
In the case of `Cn1nc(C(=O)N2CCN(C(c3ccccc3)c3ccccc3)CC2)c2ccccc2c1=O`, the Potency is reported as inconclusive [inhibitor, single point].
In the case of `COc1ccc(/C=N/NC(=O)c2ccoc2C)cc1COc1ccc(Cl)cc1`, the Potency is reported as inconclusive [inhibitor, single point].
With `O=C(CN1CCN(c2ccc(O)cc2)CC1)Nc1cc(S(=O)(=O)N2CCCCC2)ccc1Cl` the Potency was active: 10 µM.
With `COc1ccc(NC(=O)C(CC(C)C)NC(=O)C2CCC(C)CC2)cc1` (stereo not drawn) the Potency was inconclusive [inhibitor, single point].
In the case of `CC(C)(C)OC(=O)NCc1ccc(CNC(=O)c2nc[nH]c2C(=O)N2CCc3ccccc3C2)cc1`, the Potency is reported as inconclusive [inhibitor, single point].
For `CCN(CC)CCCNC(=O)c1ccc(OCC(=O)Nc2ccccc2C(F)(F)F)c(OC)c1`, the Potency was inconclusive [inhibitor, partial curve].
In the case of `COc1ccccc1C(CNC(=O)C(C)Oc1ccc(Br)cc1)N1CCCC1` (stereo not drawn), the Potency is reported as inconclusive [inhibitor, partial curve, poor fit].
In the case of `Cc1oc(-c2ccccc2F)nc1CN1CCC(C(=O)NCCC2=CCCCC2)CC1`, the Potency is reported as inconclusive [inhibitor, partial curve].
With `O=C(CC1(CC(=O)N2CCOCC2)CCCC1)Nc1ccc(F)cc1` the “activity change, negative = inhibition” value was inactive: -8.91%.
With `CCc1cc(-c2n[nH]c(CCC(=O)O)c2-c2nc3ccccc3n2C)c(O)cc1O` the “activity change, negative = inhibition” value was inactive: 12.8%.
In the case of `Cc1cccc(OCc2nnc(SCc3cc(=O)n4cc(Br)ccc4n3)o2)c1`, the Potency is reported as inconclusive [inhibitor, partial curve].
In the case of `Cc1onc(-c2ccccc2)c1C(=O)NC(=S)NNC(=O)c1ccc(O)cc1O`, the Potency is reported as inconclusive [inhibitor, full curve].
In the case of `COc1ccc(C(=O)Nc2ccc3[nH]c(-c4cccc(OC)c4)cc(=O)c3c2)cc1`, the Potency is reported as inconclusive [inhibitor, partial curve].
With `COc1cccc(OC)c1-c1nn2c(-c3cc(-c4ccccc4)n[nH]3)nnc2s1` the Potency was inconclusive [inhibitor, partial curve, poor fit].
For `Cc1oc2cc3oc(=O)c(CCC(=O)NCCN4CCOCC4)c(C)c3cc2c1C`, the “activity change, negative = inhibition” value was inactive: 2.42%.
With `Brc1ccc(CSc2ncn[nH]2)cc1` the “activity change, negative = inhibition” value was inactive: 2.89%.
For `CC(=O)N(CCC(Cc1ccccc1)c1ccc2c(c1)OCO2)Cc1ccc(Cl)cc1` (stereo not drawn), the Potency was active: 11.2 µM.
In the case of `COc1cc(C=C2C(=O)c3ccccc3C2=O)ccc1O`, the Potency is reported as inconclusive [inhibitor, single point].
With `CC(=O)c1ccc(NC(=O)c2ccc(CSc3ccccc3)o2)cc1` the Potency was inconclusive [inhibitor, single point].
With `CCOc1ccc(CCNC(=O)c2cccc(S(=O)(=O)N3CCCCC3)c2)cc1OCC` the Potency was inconclusive [inhibitor, partial curve].
For `CCOC(=O)C1CCN(Cc2cc(C(C)(C)C)c(O)c(C(C)(C)C)c2)CC1`, the “activity change, negative = inhibition” value was inactive: 5.76%.
For `O=C(Nc1ccc(-c2noc(-c3cccs3)n2)cc1)c1cccnc1`, the Potency was inconclusive [inhibitor, partial curve].
With `COc1ccc(S(=O)(=O)Nc2ccc(-c3ccc4nnc(C)n4n3)cc2)c(OC)c1` the Potency was inconclusive [inhibitor, full curve, poor fit].
In the case of `CCc1c(C)c(C#N)c2nc3ccccc3n2c1N(C)C`, the “activity change, negative = inhibition” value is reported as inactive: -2.26%.
In the case of `CN1CCN(c2ccc(NC(=O)c3ccc(-c4ccc(Cl)cc4)o3)cc2)CC1`, the Potency is reported as inconclusive [inhibitor, partial curve].
In the case of `COc1ccc(NC(=O)c2cc(-c3cc(OC)c(OC)c(OC)c3)nc3ccccc23)cc1OC`, the Potency is reported as inconclusive [inhibitor, partial curve, poor fit].
In the case of `O=C(NC(Cc1c[nH]c2ccccc12)C(=O)N/N=C/c1ccc(Br)cc1)c1cccs1` (stereo not drawn), the Potency is reported as inconclusive [inhibitor, single point].
In the case of `Cc1cc(C)n2nc(C(=O)NC(c3ccccc3)c3ccccc3)nc2n1`, the Potency is reported as inconclusive [inhibitor, partial curve].
In the case of `COc1ccc(NS(=O)(=O)c2cc(NC(=O)Cc3n[nH]c(=O)c4ccccc34)ccc2OC)cc1`, the Potency is reported as inconclusive [inhibitor, single point].
With `CCOC(=O)c1sc(NC(=O)c2c(C)nn(Cc3ccccc3)c2C)cc1C` the Potency was active: 17.8 µM.
In the case of `COc1ccc(NS(=O)(=O)c2ccc(-c3coc(C)n3)cc2)c(OC)c1`, the Potency is reported as inconclusive [inhibitor, single point].
For `CCN(CC)C(=O)[C@H]1C[C@H](CC(=O)NCCCn2ccnc2)C(=O)N2CCc3c([nH]c4cc(-c5ccco5)ccc34)[C@]12C`, the “activity change, negative = inhibition” value was inactive: -9.5%.
For `O=C(C[n+]1ccccc1)N/N=C/c1ccc(Cl)cc1`, the “activity change, negative = inhibition” value was inactive: 6.46%.
For `Cc1ccc(S(=O)(=O)NCC(=O)N(CC(=O)NCc2ccc(F)cc2)CC2CCCO2)cc1` (stereo not drawn), the “activity change, negative = inhibition” value was inactive: -0.733%.
For `Cc1nn(C)c(Oc2cccc(Cl)c2)c1C(=O)Nc1ccc(F)cc1F`, the Potency was inconclusive [inhibitor, partial curve].
In the case of `CCOC(=O)c1ccc(NC(=O)CC2S/C(=N/N=C/c3c[nH]c4ccccc34)NC2=O)cc1` (stereo not drawn), the Potency is reported as inconclusive [inhibitor, single point].
With `COc1ccc(CC(=O)Nc2ccc(/C(C)=N/NC(=O)c3cccc([N+](=O)[O-])c3)cc2)cc1` the Potency was inconclusive [inhibitor, full curve].
In the case of `COc1ccccc1N1CCN(C/C(C)=C/c2ccccc2)CC1`, the Potency is reported as inconclusive [inhibitor, full curve, poor fit].
With `COC(=O)[C@@H]1[C@@H](C)N(Cc2ccccc2)C(=O)N[C@H]1c1cccc(C(F)(F)F)c1` the Potency was active: 2.82 µM.
With `CC(C)n1ncc2c(C(=O)Nc3ccc(CC#N)cc3)cc(C3CC3)nc21` the Potency was inconclusive [inhibitor, partial curve].
On the % scale 0 is the no-effect control and ±100 the full control effect; potency means the concentration at half of the fitted maximal effect; tags describe the fitted curve by direction and shape.
